Test results: the supplement of paper PMC11417369
The list shows a part of the results.

tested on: PfAP2-HC AP2 domain (GST-tagged); test: gcPBM binding intensity (ln(normalized median fluorescence intensity)); higher = stronger DNA binding
How it was run: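 GST-tagged P. falciparum DNA-binding domains, expressed in E. coli (about 25 μg on average), were applied for 1 h to an Agilent 4 × 180k array of primer-extended double-stranded 36-bp intergenic genomic probes plus negative controls. The binding buffer was 1× PBS with 1% milk, 0.2 mg/ml BSA, 0.5% salmon testes DNA and 0.03% Triton X-100. Bound protein was detected with Alexa488 anti-GST antibody and scanned at 488 nm. Binding intensity is the highest Masliner-normalised natural-log median intensity across replicate spots of either probe orientation.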

Sequence	gcPBM binding intensity (ln)
TATTAGATATAATATATACACACCAACGAACGAAGA [CACACA_site1134]	10.1
ACAGTATCTGGTAGCTGTACGGATTGTAGAGAGTAG [XGTACX_site4872]	9.71
AGAATAATAAAATGGGTGCAATAGTTTTTTTTTTTT [GTGCAC_site9823]	9.75
CAAAACCTACATAACATACACACGCATATATAGAAT [CACACA_site2846]	10.1
TTCTTATCAAGAGAAAGTACATAAAAAATTAATAAG [XGTACX_site1821]	9.5
CATGCAATATTAAACACACACTCATATAGCACAATA [CACACA_site6182]	10.1
CCAACAAAAATAAGCACACACAAATATACATACATA [CACACA_site3606]	11.1
TTGGATTTTCCATAATGTACACATAAAAGTGTTACA [XGTACX_site4544]	9.4
TTTTAAAAAATATAATATAATATAATATAAAATAAA [CACACA_negctrl_site154]	9.37
TAATATAGTATAGTATGTACATATAATTAGAATATT [XGTACX_site4053]	9.9
TGGTATATATTTCCTTGTACATATAATATATATTGT [XGTACX_site3961]	9.84
ATATATATATATATATGTACATATTTTAATAATTAA [XGTACX_site8549]	9.61
CGCGCACACGGACACACACACACACGGATATAAATA [CACACA_site7102]	11.3
TGTTGTTACATATATACACACATATATATATTATAT [CACACA_site2397]	10
TCTTGACGAAGTAGAAGGATATATATATAAAAAAAA [CACACA_negctrl_site641]	9.47
TCGTCTCTTCTTGTTCTGTTTTAGAAGGCTATATAT [CACACA_negctrl_site180]	9.73
TCCAGGTATTTATTCTGTACACATAAAACATTTTAT [XGTACX_site8472]	9.71
AGGAGGTCAGTTCACAGTACCCAGAAAACTCTACGA [XGTACX_site1992]	9.29
TATTAAAGGGGTTTCACACACATGTATAATTAATTT [CACACA_site200]	9.98
AACCATATTTAGATTACACACAGTTTAAATATTTTA [CACACA_site6712]	9.68
AATTTGTTATGTATATGTACATAAATAGATATATGA [XGTACX_site3930]	9.77
AAAAAAAAATTTAAGTGTACATTCCATTTTAGTTTA [XGTACX_site5286]	9.38
AAAATATATATGTATGTTTATATGTTTATATATATT [XGTACX_negctrl_site337]	9.67

Sequence	gcPBM binding intensity (ln)
TCTAAGTATAAAGACACACAGAATAAAAAAAAATAT [CACACA_site2367]	9.81
TATTTAATATATTTATGTACATATTTATTTATTATT [XGTACX_site524]	9.87
TATTTTTCTTTATTGGTACACACGAAAAAAAAATTG [CACACA_site3054]	9.53
AAAATCCAGTTTTCAAAATTGAACAAAAAAAAAATA [GTGCAC_negctrl_site542]	9.46
ATATATTTTTTAAACACACACATAAATATTTGTGTA [CACACA_site2879]	9.91
AAAGGATATGGACACACACACACATATATATATATA [CACACA_site8686]	10.6
CAACACTTATTGAAACGTACGCATATAGTTTCTTTT [XGTACX_site8960]	9.7
TTTATTTATATTTATACACACAAACATAATACTACT [CACACA_site7039]	9.87
GGATAATATATTAGAACACACATATATCTGTAAAAA [CACACA_site4266]	9.81
TAATATAATATATGCACACAAATATGTATATATGTG [CACACA_site2134]	9.88
AATAAAATAATAAAAGCACACAAGAATACAGACAAA [CACACA_site112]	10.3
ATGTAAAACATAAAATGTACATATTATACAAACTAT [XGTACX_site5797]	9.87
TAAGTATAAATATTTACACACATTTGTTTTTTTTTA [CACACA_site7731]	9.87
AACTATTTTATTATATGTACTTACGAATTTATAAAA [XGTACX_site5262]	9.44
TAATATACATAATAATGTACATATTTTCATATATAC [XGTACX_site6913]	9.66
CACAAAATAAATTAAACACACAACATCAGATATGTA [CACACA_site6529]	10.1
ATAAACTGATGTGTATGTACACATGTAATAATAAAT [XGTACX_site7649]	9.98
TGTGTTGTAACAAAATGTACGAGCTTGATGTAGAAT [XGTACX_site2293]	9.86
AATGTAGGTTTATTTACACACAAATATAAATATATA [CACACA_site1523]	9.84
ACATGTATTTATAAGAGTACATATGTGTGCATGTTT [XGTACX_site7946]	9.96
TTTTATCGATATATCTGTACATATTACTTATAATAA [XGTACX_site57]	9.78
TGCTATAATTTATATACACACAAATATATACTCATA [CACACA_site6111]	9.73
TATAACTATTTATAATGTACTCATGTATAATTATAT [XGTACX_site7913]	9.48

Sequence	gcPBM binding intensity (ln)
TTAATTTATTTATGCACACATATATAATTACACATA [CACACA_site4544]	9.79
TTTATATATTATATAAATATTATTATACTTTAAATA [TGCATGCA_negctrl_site236]	9.22
ATGCTTTTGTCATGTGCACACACGTATATATTATAT [CACACA_site4163]	10.3
TCGAACATTAACATAACACACATATATATATATATA [CACACA_site2900]	9.84
AAGGTTATTTATATATGTACTTAATATATATATATG [XGTACX_site886]	9.68
TTTATAATATACATAACACACAATTATTATTTCTTA [CACACA_site3624]	9.67
TTTTTTTCCTTATCTATATATAATCAAATTTTCTAC [CACACA_negctrl_site867]	9.59
AACTTTTAGAAGAACACACACATATAGATTATGACC [CACACA_site6256]	10.6
TTATAACAAATATAGAGTACTAAAATTTTACGTTAT [XGTACX_site1410]	9.6
GAAATTTTTAAAAAGGTGCTTTTAACAAAAATTATT [GTGCAC_site9687]	9.39
TTATTAAAAAAAATATGTACTCACAATATAATATAT [XGTACX_site3738]	9.51
TTTTTTTTTTCTTGTTGTACTTTTAATAATTCATAT [XGTACX_site4704]	9.71
TATATATATATAACATGTACATAAAATACATTTATA [XGTACX_site7370]	9.44
ACCATCCTTAATACTTATTTTTTCACAATTAAGTAA [GTGCAC_negctrl_site269]	9.59
AGTATTTTAATTTCAGTGCATTTTATTCTATAATTA	9.62
AAAAAAAAAAAAAATGCATGTGCGTAAATAATAATA [TGCATGCA_site793]	9.68
AAGTTTTCTTACAGATGTACTTTTTAAAAATAAACT [XGTACX_site6632]	9.57
ATATATATCTATATTTGTACATATTACATTCAAGTT [XGTACX_site1749]	9.75
TTTAGGAAAGGCGGCACACATTTATATATTTATTTA [CACACA_site5931]	9.74
AAAAAAAAAAAAAGATGTACATATATTTTTATTATA [XGTACX_site654]	9.5
AACCATTCTTCTAATTGTACATTGAAAAATCATGAT [XGTACX_site3854]	9.4
AAGGATATAAAAAAACGTACGTACGATAATATAATT [XGTACX_site1292]	9.86
TTTTTTTTTTTTCTGTGTACATATATAATATATATA [XGTACX_site1592]	9.7

Sequence	gcPBM binding intensity (ln)
ATATCTATATTTTAAAGTACGTAGTAAAAAGAAAAA [XGTACX_site4323]	9.63
TTTTATGAAAAGATGAGTACACAATACTTTTTAATT [XGTACX_site8253]	9.43
ATCATTTTTTATGCGTGTACATAAATTTATTAGGTT [XGTACX_site2786]	9.92
TAATTATTACACGGTATTATATATAATATGTTAAAA [GTGCAC_negctrl_site134]	9.48
TTTTTTGTTAAACCGGTGCATATAAATATATATATA [GTGCAC_site9989]	9.56
CACAAAAAAGTTCATACACACAACATATTTATATAT [CACACA_site2887]	10.1
TAACAAAACATAGATTGTACATATTATAAATGTATA [XGTACX_site1543]	9.75
GTTACATACCTATACACACACATATATAAATAAATA [CACACA_site6549]	10.3
TATTCTTATCTTACCACACACAATGTACGAAAAGAT [CACACA_site6296]	9.83
ATATAAAAATACAGGTGTACATTTTTTCATATTTAT [XGTACX_site6959]	9.75
TTTCCCATAGGAAAAACACACATATATTATATATAA [CACACA_site1981]	9.5
CAATATTATATTACTTGTACACATATGTAGTTTCGA [XGTACX_site8945]	9.68
CAAAATATACACACGTGTACACAAATATTTACAAAA [XGTACX_site2257]	9.99
TTATGTCGTAAATACACACATACATATACATACACA [CACACA_site1374]	9.85
TTGTCACTAATAGATGCATGCAATCATTCCATTTTT [TGCATGCA_site938]	9.7
TTGTAATGATATATTTGTACTTAATATAATTGTATA [XGTACX_site2748]	9.59
AATAAATTGAAACACACACACACATATATATATATA [CACACA_site848]	11.2
TTTATTGCTCTATATGCACACCTTAATTCTTCATTT [CACACA_site8682]	9.99
GAAGATTTATCTTGCACACGCAAAAAAAAAAAAAAA [CACACA_site154]	9.67
GAAAATATTTCTATCTGTACTTATTTATATATATAT [XGTACX_site7317]	9.73
